In ChEMBL document CHEMBL1201862, “PubChem BioAssay data set” (2004):
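Interpolation was linear, between the two tested concentrations surrounding the appropriate level; five concentrations were tested over 48 hours in 96-well plates. GI50 marks 50% less growth.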 The source made the active and inactive calls. No stated cut-off is given here; in the data, active = GI50 up to about 1.1 µM and inactive = higher.

Each molecule was assayed on NCI-H322M (assay: growth of human tumour cells (NCI), 48 h).
`c1ccc2sc(SCSc3nc4ccccc4s3)nc2c1` was tested, and the GI50 was inactive: > 100 µM.
With `O=C(O)C(=Cc1ccc(-c2ccccc2)cc1)C(=O)O` the GI50 was inactive: > 41.1 µM.
In the case of `CN(C)CCCNc1ccc2ncn3c4ccccc4c(=O)c1c23`, the GI50 was inactive: 7.53 µM.
For `CCN(CC)C(=S)SC1CCOP(=O)(N(CCCl)CCCl)N1C` (configuration not stated), the GI50 was inactive: > 79.6 µM.
`c1cnc2c3[nH]cc4[nH]c5ccccc5c4c-3nc2c1` was tested, and the GI50 was inactive: 54.3 µM.
In the case of `COc1ccc(/C=C/c2ccnc3ccccc23)c(OC)c1`, the GI50 was inactive: > 10 µM.
In the case of `C=C1C(=O)OC2C1CCC(C)C1(O)C=CC(=O)C21C` (configuration not stated), the GI50 was inactive: > 10 µM.
`CN(C)c1cccc(/C=C(\C#N)c2ccccc2)c1` was tested, and the GI50 was active: 0.497 µM.
`O=[N+]([O-])c1cc(Cl)ccc1Sc1ccccc1` was tested, and the GI50 was inactive: > 100 µM.
With `CNC(=O)SCC(N)C(=O)O` (configuration not stated) the GI50 was inactive: > 92.3 µM.
For `CC(C)C(=O)/C=C/c1ccc(Cl)cc1Cl`, the GI50 was inactive: 14.8 µM.
In the case of `Cc1cc(C)nc(NS(=O)(=O)c2ccc(NC(=O)c3ccc4nc5ccccc5c(Nc5ccc(S(=O)(=O)N=C(N)N)cc5)c4c3)cc2)n1`, the GI50 was inactive: > 100 µM.
In the case of `O=c1c2cc(S(=O)(=O)Nc3ccccc3Cl)ccc2ncn1NS(=O)(=O)c1ccc(Br)cc1`, the GI50 was inactive: > 37.5 µM.
`CCCCOC(=O)C(=O)C(CCC(=O)c1ccc(C)cc1)C(=O)C=C(C)C` (configuration not stated) was tested, and the GI50 was inactive: > 100 µM.
`Cc1nc(Nc2ccccc2)sc1C(=O)NNc1ccc([N+](=O)[O-])cc1[N+](=O)[O-]` was tested, and the GI50 was inactive: 53.7 µM.
With `C=C(CO)CC(O)c1cc(OC)ccc1OC` (configuration not stated) the GI50 was inactive: > 100 µM.
With `COC(=O)C(NC(=O)c1ccccc1)C(c1ccc(Cl)cc1)P(=O)(OC)OC` (configuration not stated) the GI50 was inactive: > 100 µM.
In the case of `CC(C)(C)C(=O)CC1(O)C=C(O)C(O)(CC(=O)C(C)(C)C)O1` (configuration not stated), the GI50 was inactive: > 100 µM.
In the case of `O=C(CC1C(=O)Nc2ccccc2S1(=O)=O)Nc1ccc(Cl)cc1` (configuration not stated), the GI50 was inactive: 58.5 µM.
In the case of `C#CCn1c(=O)[nH]c(=O)c2cccnc21`, the GI50 was inactive: > 100 µM.
In the case of `CCOC(=O)c1c(C)n(Cc2ccccc2)c(=O)c2ccccc2c(=O)c2c(=O)ccc(=O)c1=2`, the GI50 was inactive: > 100 µM.
With `CCOC(=O)C1C(c2ccc([N+](=O)[O-])cc2)NC(c2ccc([N+](=O)[O-])cc2)C(C(=O)OC)S1(=O)=O` (configuration not stated) the GI50 was inactive: > 100 µM.
`CCOC(=O)n1[nH]c(=O)n(-c2ccccc2)c1=O` was tested, and the GI50 was inactive: > 100 µM.
In the case of `N#Cc1nnc2ccccc2c1N`, the GI50 was inactive: > 100 µM.
`CN(C)CN(C)c1nc(N(C)C)nc(N(C)C)n1` was tested, and the GI50 was inactive: > 100 µM.
`CN(/N=C\c1ccc2ccccc2c1)C1=NCCCN1` was tested, and the GI50 was inactive: 17.2 µM.
`CC(C)(Oc1ccc(C(=O)c2ccc(Cl)cc2)cc1Cl)C(=O)N1CCN(CCO)CC1` was tested, and the GI50 was inactive: > 10 µM.
`O=C(c1ccc(Cl)c(Cl)c1)N(C(=O)N1CCN(c2ccccc2)CC1)S(=O)(=O)c1ccccc1` was tested, and the GI50 was inactive: > 100 µM.
With `S=c1nc(N/N=C/c2cccs2)c2cn[nH]c2[nH]1` the GI50 was active: 0.861 µM.
For `CCN1CCC(O)(/C=C/c2ccc(OC)cc2)C(C(=O)/C=C/c2ccc(OC)cc2)C1` (configuration not stated), the GI50 was inactive: 14.2 µM.
For `COc1ccc(/C=C2\CCC(CN(C)C)C2=O)cc1` (configuration not stated), the GI50 was inactive: 16.8 µM.
With `CC(=O)OCC1OC(O/C=C(\CN=[N+]=[N-])C(C)=O)C(OC(C)=O)C(OC(C)=O)C1OC(C)=O` (configuration not stated) the GI50 was inactive: 22 µM.
In the case of `CN1C(=O)c2ccccc2C(O)(c2ccccc2)C1(O)c1ccccc1` (configuration not stated), the GI50 was inactive: > 100 µM.
`CCOC(=O)c1cc2c3c(c(C(C)=O)c(OC)c2[nH]1)N(C(=O)CC)CC3` was tested, and the GI50 was inactive: 12.7 µM.
For `CC1C(=O)OC2CC[N+]3(CC(=O)c4ccc(Br)cc4)CC=C(COC(=O)C(C)(O)C1(C)O)C23` (configuration not stated), the GI50 was inactive: > 375 µM.
`CCCCOc1ccc(OCCCCCCCCCC[N+](C)(C)C)cc1` was tested, and the GI50 was inactive: 9.06 µM.
With `Cn1c(=O)cc(N2CCCC2)[nH]c1=O` the GI50 was inactive: > 100 µM.
With `Cc1cc(C)nc(SCC(=O)OC2CC(C)CCC2C(C)C)n1` (configuration not stated) the GI50 was inactive: 24 µM.
`C/C=C1/CC(C(=O)OC)N(C(=O)OCc2ccccc2)C1=S` (configuration not stated) was tested, and the GI50 was inactive: 44.3 µM.
With `CC1=C(O)/C(=C/C(C)CCC/C(C)=C/C=C/C(C)CCCc2ccoc2)OC1=O` (configuration not stated) the GI50 was inactive: 27.2 µM.
`CCCCCc1nnc(NS(=O)(=O)c2ccc(NC(=O)OCC(C)C)cc2)s1` was tested, and the GI50 was inactive: 44.4 µM.
With `CCOc1cc(/C=N/c2nc3cc4sc(/N=C/c5ccc(O)c(OCC)c5)nc4cc3s2)ccc1O` the GI50 was inactive: > 100 µM.
With `O=S(=O)(N=[Se](=O)(c1ccccc1)c1ccccc1)c1ccccc1` the GI50 was inactive: > 100 µM.
`COc1cc(S(=O)(=O)Nc2ccc(-c3csc(N4C(=O)CSC4c4cccs4)n3)cc2)ccc1Cl` (configuration not stated) was tested, and the GI50 was inactive: 42.2 µM.
`COc1ccc(-c2c(C#N)c(-c3ccc(C)cc3)n(NS(=O)(=O)c3ccc(C)cc3)c(=O)c2C#N)cc1` was tested, and the GI50 was inactive: 93.8 µM.
`O=C(C#Cc1ccccc1)Nc1ccccc1CC(c1c[nH]c2ccccc12)c1c[nH]c2ccccc12` was tested, and the GI50 was inactive: 42.8 µM.
For `C=C1C(=O)O[C@H]2C[C@@H](C)[C@@H]3CC(=O)OC[C@@]3(C)CC12` (some centres not stated), the GI50 was inactive: 21.5 µM.
